# Laboratory results from the supplement of paper PMC10338343.
# ± gives the standard deviation. The list shows a part of the results, in another mix than the full data.
# Test system: MIWI (PIWIL1) piRISC loaded with L1MC piRNA (30 nt)
# Assay: pre-steady-state target cleavage rate (min^-1); MIWI and MILI are mouse PIWI proteins and EfPiwi is from a freshwater sponge; tags in brackets are library labels; higher = faster piRNA-guided slicing of the target
# Details: guide: L1MC piRNA 5'p-UAACUAAAUACUAUGCAAGCUGUAGGUCCU; auxiliary factor: 500 nM mouse GTSF1
# Protocol: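 Cleave-'n-Seq: a library of target RNAs (target site embedded in constant flanks, ACAGCATTCCGCGTTAGTGATATCCG... 5' flank; DNA-blocked outside the site) at 0.1 nM was incubated with 1 nM active mouse MILI or MIWI piRISC (synthetic 5'-monophosphorylated piRNA guide) with or without 500 nM mouse GTSF1 at 33 °C for 1 min to 16 h. Uncleaved targets were sequenced and normalised to non-target controls, and the pooled three trials were fitted to a burst-and-steady-state model to give the pre-steady-state cleavage rate (min^-1; k3 is constrained to at most 1e-4). Sequence is the target site only; target names encode pairing extent (gX:gY) and contiguous / 1-mismatch / 2-mismatch / bulge geometry. Fits with R² ≤ 0 are excluded.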
row,Sequence,pre-steady-state target cleavage rate
1,UCCACCUACACCUUGCAUAGUAUUUAGAAA,0.374 ± 0.066
2,AGGACCUACUCCUUGCAUAGUAUUUAGUUA,1.21 ± 0.036
3,UCCACCUACAGCUUGCAUUGUAUUUUGUUA,0.407 ± 0.026
4,UCCUGCUAGAGCUUGCAUAGUAUUUUGUUA,0.714 ± 0.069
5,UGGACCUACAGCUUGCAUAGUAUUAAGUAA,0.335 ± 0.037
6,UCCUGCUACAGCUAGCAUAGUAUUUACUUA,0.621 ± 0.083
7,UCCUGGAUGUGCUUGCAUAGUAUUUUGUUA,0.213 ± 0.022
8,UCCUGGAUCAGCUUGCAUAGUAUUUAGUCUA,0.118 ± 0.019
9,UCGACCUACAGCUUGGAUAGUAUUUUCAAA,0.0746 ± 0.021
10,AGGACCUAGUGCUUGCAUAGUAUUUAGAAA,0.19 ± 0.033
11,AGGACCAACAGCUUCCAUAGUAUUUAGUUA,0.0962 ± 0.019
12,UCCUGCUACAGCUUGCAUACUAAUUAGUUA,0.2 ± 0.019
13,UCCUGGAUGUGCUUGCAUAGUAUUUAGUGA,0.294 ± 0.018
14,UCCUGGAUGAGCUUGCAUAGUUUUUAGAUA,0.0373 ± 0.011
15,UCGACCUACAGGUAGCAUAGUAUUUAGUUA,1.29 ± 0.095
16,UCCUGGAUGUGCAUGCAUAGUAUAUAGUUA,0.0113 ± 0.005
17,UCCACCUACAGCUUGCAUUGUAAUUAGUUA,0.372 ± 0.023
18,AGGACCUACUGCUUGCAUUGUAUUUAGUUA,0.892 ± 0.03
19,UGGACCUACAGCUUGCAUAGUAAUUAGAUA,0.224 ± 0.035
20,UCCAGCUUCAGCUUGCAUAGUAUUUAGUUA,0.898 ± 0.041
21,AGGAGCUACAGCUUCCAUAGUAUUUAGUUA,0.31 ± 0.03

# Same assay, conditions: guide: L1MC piRNA 5'p-UAACUAAAUACUAUGCAAGCUGUAGGUCCU; auxiliary factor: none (no GTSF1)
row,Sequence,pre-steady-state target cleavage rate
1,UCCACCUACACCUUGCAUAGUAUUUAGAAA,0.00472 ± 0.0024
2,AGGACCUACUCCUUGCAUAGUAUUUAGUUA,0.0563 ± 0.0083
3,UCCACCUACAGCUUGCAUUGUAUUUUGUUA,0.0116 ± 0.0027
4,UCCUGCUAGAGCUUGCAUAGUAUUUUGUUA,0.0251 ± 0.0042
5,UGGACCUACAGCUUGCAUAGUAUUAAGUAA,0.0164 ± 0.0052
6,UCCUGCUACAGCUAGCAUAGUAUUUACUUA,0.0072 ± 0.0023
7,UCCUGGAUGUGCUUGCAUAGUAUUUUGUUA,0.0261 ± 0.0063
8,UCCUGGAUCAGCUUGCAUAGUAUUUAGUCUA,0.00898 ± 0.0019
9,AGGACCUAGUGCUUGCAUAGUAUUUAGAAA,0.00715 ± 0.0021
10,AGGACCAACAGCUUCCAUAGUAUUUAGUUA,0.00538 ± 0.0017
11,UCCUGCUACAGCUUGCAUACUAAUUAGUUA,0.00907 ± 0.0022
12,UCCUGGAUGUGCUUGCAUAGUAUUUAGUGA,0.0269 ± 0.0064
13,UCCUGGAUGAGCUUGCAUAGUUUUUAGAUA,0.00756 ± 0.0031
14,UCGACCUACAGGUAGCAUAGUAUUUAGUUA,0.00559 ± 0.002
15,UCCACCUACAGCUUGCAUUGUAAUUAGUUA,0.00906 ± 0.0022
16,AGGACCUACUGCUUGCAUUGUAUUUAGUUA,0.0384 ± 0.008
17,UGGACCUACAGCUUGCAUAGUAAUUAGAUA,0.00678 ± 0.0022
18,UCCAGCUUCAGCUUGCAUAGUAUUUAGUUA,0.0465 ± 0.0064
19,AGGAGCUACAGCUUCCAUAGUAUUUAGUUA,0.00791 ± 0.0021
